Experimental data as given in PubChem BioAssay AID1347073 (National Center for Advancing Translational Sciences (NCATS), 2019).
In all, about 45,000 compounds went through this assay and about 200 (0.44%) were called active. About 7% were inconclusive and are not listed. The call rests on the fitted dose curve; in most records, active means well fitted activation curve with a large enough effect; inconclusive means small, poorly fitted or top-dose-only effect; inactive means no such curve, though single readings can be large or run the other way. This is one part of the list.

assay: qHTS of TDP-43 Inhibitors: NCGC Sytravon Library Screen; settings: yeast TDP-43 toxicity rescue, BacTiter-Glo growth, 24 h; series mostly up to 46.1 µM; growth rescue (activation): at the top concentration; further: nearly all actives have a fitted effect of over 55% in size; on growth rescue (activation): 0% is about no effect
Summary of the method: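 TDP-43-expressing yeast, pregrown in raffinose, seeded at OD600 0.02 in galactose medium with compound for 24 hr at 30 deg C. Growth read by BacTiter-Glo luminescence, so rescue of toxicity appears as activation.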
Potency means the concentration at half of the fitted maximal effect.

Row | Compound | growth rescue (activation) | Potency
1 | COc1cccc(CNCC(O)COc2ccc(C(=O)c3ccccc3)cc2)c1 (configuration not stated) | inactive: -9.2% | –
2 | O=C(NC1CCCCCC1)c1cccnc1Sc1ccc(Cl)cc1 | inactive: 4.89% | –
3 | O=C(CSc1nc2c(cnn2-c2ccccc2)c(=O)[nH]1)NCC1CCCO1 (configuration not stated) | inactive: 0.734% | –
4 | Cc1ccc(CNS(=O)(=O)c2ccc3c(c2)n(C)c(=O)c(=O)n3C)cc1 | inactive: 13.2% | –
5 | CCN(CC)C1CCN(c2nc3nonc3nc2NCCOC)C1 (configuration not stated) | inactive: 1.92% | –
6 | CC1CCCCC1NC(=O)Cn1c(=O)cnc2ccccc21 (configuration not stated) | inactive: 5.98% | –
7 | COc1cc(/C=N/N=C(\N)c2nonc2N)cc(OC)c1O | inactive: 5.95% | –
8 | Cc1ccc(C)c(Cn2nnc3c(=O)[nH]c(C4CCCN(C(=O)c5ccco5)C4)nc32)c1 (configuration not stated) | inactive: 6.3% | –
9 | CC(=O)c1ccc(NC(=O)CCc2c(C)nc3c(c(C)nn3-c3ccc(C)cc3)c2C)cc1 | inactive: 6.73% | –
10 | CN(C)S(=O)(=O)c1cccc(NC(=O)C2CCN(S(=O)(=O)c3cccs3)CC2)c1 | inactive: -1.89% | –
11 | O=C(Cn1nc(C(=O)O)c2ccccc2c1=O)Nc1ccc(F)cc1F | inactive: 16% | –
12 | CSc1cccc(NC(=S)N2CCCN(Cc3ccc(F)cc3)C2)c1 | inactive: 15.2% | –
13 | CCCNC(=O)C1(C)CCCN(C(=O)c2cc(F)cc(F)c2)C1 (configuration not stated) | inactive: 4.34% | –
14 | COc1ccc(C2CC3(CC(C)(C)NC(=S)N3)Oc3cc(O)cc(C)c32)cc1OC (configuration not stated) | inactive: -4.95% | –
15 | Cn1c(SCc2ccccc2)nnc1-c1ccco1 | inactive: 5.21% | –
16 | O=C(c1cc([N+](=O)[O-])ccc1N1CCCCC1)N1CCc2ccccc21 | inactive: 3.02% | –
17 | O=S(=O)(NCc1cccc(C(F)(F)F)c1)NCc1ccccc1F | inactive: 10.5% | –
18 | CCN(CC)CCSc1nnc2c3cc(F)ccc3n(Cc3ccccc3)c2n1 | inactive: -12.2% | –
19 | CC(=O)c1cc(C#N)c(NCCCN(C)C)nc1C | inactive: 1.32% | –
20 | Cc1ccc(NC(=O)COC(=O)Cn2cnc3c2c(=O)n(C)c(=O)n3C)cc1F | inactive: 17.1% | –
21 | C/C(CC(=O)Nc1c(C)cc(C)cc1C)=N\NC(=O)Cc1ccccc1 | inactive: -13.2% | –
22 | Cc1cc(Br)ccc1NC(=O)CN(C)Cc1cccs1 | inactive: -4.58% | –
23 | COc1cccc(NC(=O)CN2C(=O)C(=O)N(C3CCCC3)C2=O)c1 | inactive: -1.46% | –
24 | CCOc1ccc(N=C(C)C2=C(O)c3ccccc3C2=O)cc1 | inactive: -14.1% | –

Row | Compound | growth rescue (activation) | Potency
25 | CCS(=O)(=O)N1Cc2ccccc2CC1C(=O)Nc1ccc(OC)c(OC)c1 (configuration not stated) | inactive: -3.13% | –
26 | Cc1cc(C)n(C(=O)/C=C/c2cccs2)n1 | inactive: 14.9% | –
27 | CCN(CC)S(=O)(=O)c1ccc(NC(=O)CSc2ncnc3ccccc23)cc1 | – | active: 22.4 µM
28 | Cc1ccc2nc(-c3ccc(O)cc3)oc2c1 | inactive: 10.2% | –
29 | CCOC(=O)C1(CCOC)CCN(Cc2nc(C(C)C)cs2)CC1 | inactive: -3.33% | –
30 | CSc1nc2ccc(NC(=O)c3ccco3)cc2s1 | inactive: 15.5% | –
31 | Cc1ccc(OCCC(=O)NNC(=O)c2ccc(Br)cc2)cc1 | inactive: 19.7% | –
32 | COc1cc(C)ccc1OCC(=O)OCC(=O)c1[nH]c(C)c(C(C)=O)c1C | inactive: 2.79% | –
33 | C=CC[n+]1cccc(-c2cc3ccc(C)cc3[nH]2)c1 | inactive: -0.804% | –
34 | CCOC(=O)c1c(C)c[nH]c1C | inactive: -3.88% | –
35 | Cc1cc(C)c(C(=O)COC(=O)c2ccc(NC(=O)CC#N)cc2)cc1C | inactive: 36.1% | –
36 | COc1ccccc1CCC(=O)OCC(=O)NCc1ccc(OC)c(OC)c1 | inactive: 6.01% | –
37 | O=C(N/N=C/c1ccccc1[N+](=O)[O-])c1cccs1 | inactive: 12.9% | –
38 | CC(C)(C)NC(=O)NC(=O)COC(=O)CCC1CCCC1 | inactive: 27.9% | –
39 | O=C(NCCc1ccccc1F)c1cccc2cccnc12 | inactive: 7.19% | –
40 | CCc1cc2c(COC(=O)c3cccc(NS(C)(=O)=O)c3)cc(=O)oc2cc1O | inactive: 10.9% | –
41 | O=C(COC(=O)CN1C(=O)NC2(CCCC2)C1=O)NCc1ccc(Cl)cc1Cl | inactive: 4.37% | –
42 | O=S(=O)(NCc1csc(-c2ccccc2)n1)c1cccc(F)c1 | inactive: 31.4% | –
43 | CCCCN(C=O)c1c(CC)nc2c(OCCOc3ccc(F)cc3)cccn12 | inactive: 11.6% | –
44 | CCc1ccc(N2CC(C(=O)Nc3ccc(S(=O)(=O)Nc4ncccn4)cc3)CC2=O)cc1 (configuration not stated) | inactive: 5.09% | –
45 | CCC(=O)NN1CCc2cc3ccc(C)cc3nc21 | inactive: 12.6% | –
46 | COc1ccc(/C=C2\Sc3ccc(C(=O)NCc4cccnc4)cc3N(C)C2=O)cc1OC | inactive: 12.5% | –
47 | COc1cccc(C(=O)COC(=O)c2n[nH]c(=O)c3ccccc23)c1 | inactive: 8.11% | –
48 | Cc1ccnc(NC(=O)COC(=O)c2ccc(F)cc2F)n1 | inactive: -5.78% | –

Row | Compound | growth rescue (activation) | Potency
49 | O=C(Nc1ccccc1)O/N=C/c1ccncc1 | inactive: 0.711% | –
50 | COc1ccc(C(=O)Nc2ccccc2C(=O)N2CCOCC2)cc1 | inactive: -0.777% | –
51 | COc1cc(NS(=O)(=O)c2ccc(NC(=S)NC(=O)/C=C/c3ccco3)cc2)ncn1 | inactive: 0.203% | –
52 | CC(C)NC(=O)CN(Cc1ccc2c(c1)OCO2)C(=O)CCC(=O)Nc1ccccn1 | inactive: -14.4% | –
53 | CCn1c(=O)c2cc(C(=O)NCCOC)sc2c2ccccc21 | inactive: -0.983% | –
54 | COc1ccc(N2CC(C(=O)Nc3ccccc3C(=O)NC3CC3)CC2=O)cc1 (configuration not stated) | inactive: 5.68% | –
55 | Cc1cccc(NC(=O)c2sc(NC(=O)COc3ccccc3)c(C#N)c2C)c1C | inactive: 5.66% | –
56 | Cc1ccc(NC(=O)c2ccc3nccnc3c2)c(C)c1 | inactive: 12.1% | –
57 | Cn1nnnc1SCC(=O)Nc1ncc(C(F)(F)F)cc1Cl | inactive: -0.308% | –
58 | Cc1cc(O)ccc1-c1cccc2nccn12 | inactive: -0.0471% | –
59 | CC(C)(C)c1cc(N2CCOCC2)n2ncc(-c3ccc(Cl)cc3)c2n1 | inactive: 17.6% | –
60 | CCCCc1nc2c(C)c(N)cnc2n1Cc1cccc([N+](=O)[O-])c1 | inactive: 5.68% | –
61 | CCCCCCC(C)n1[nH]c(=O)cc1N (configuration not stated) | inactive: -16% | –
62 | CCc1cc2c(=O)c(-c3nc(C)cs3)coc2cc1OC(C)C(=O)NCCO (configuration not stated) | inactive: -15.5% | –
63 | Cc1cc(C(=O)NCc2cc(C(=O)O)co2)co1 | inactive: 10.2% | –
64 | O=C(Cc1ccccc1)NNS(=O)(=O)c1ccc([N+](=O)[O-])cc1 | inactive: 9.81% | –
65 | CC(=O)N1CCOCCOCCN(C(C)=O)CCOCC1 | inactive: 10.6% | –
66 | Clc1c(-c2ccccc2)nc2ccccn12 | inactive: 0.877% | –
67 | O=C1COc2ccc(C(=O)COC(=O)c3ccccc3F)cc2N1 | inactive: 12.9% | –
68 | Cc1cccc(-c2c3c(=O)n(C)c(=O)n(C)c3cn2CCO)c1 | inactive: -9.65% | –
69 | Cc1sc2ncnc(NC(C)C(=O)O)c2c1C (configuration not stated) | inactive: 3.18% | –
70 | CCOC(=O)c1[nH]c(C)c(C(=O)NCC2CCCO2)c1C (configuration not stated) | inactive: 1.2% | –
71 | CCN(CC)S(=O)(=O)c1cccc(NC(=O)COC(=O)c2cncc(Br)c2)c1 | inactive: 20% | –
72 | CCc1cc2cccc(C)c2nc1SCC(=O)NC1CCCC1 | inactive: 6.82% | –
